The supplement of paper PMC4967469
IC50 is the fitted dose that halves viability relative to control wells, and lower means more sensitive; a limit (>, <) means that the fit lies beyond the doses tested. AUC, from the same fit, is the share of area under the viability curve across the 256-fold dose range: 1 means no effect, lower means more sensitive. For some assays here: An inferred top dose was calculated from the reported fits. For some assays here: Drugs with an entry number were screened twice under separate entries, and the two screens often disagree.

How the values were obtained:
Assay in all cases: Viability of human cancer cell lines after 72 h of drug (GDSC screen)
AZ628 = compound: Cc1ccc(NC(=O)c2cccc(C(C)(C)C#N)c2)cc1Nc1ccc2ncn(C)c(=O)c2c1 [AZ628]; settings: top dose 4 µM; top dose inferred
Procedure: (§1)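 Human cancer cell lines in 384-well plates, medium with 10% serum, drug for 72 h over a 256-fold dose range (nine 2-fold or five 4-fold steps up to the top dose). Adherent lines were fixed and stained with the nucleic acid dye Syto60, suspension lines read with resazurin; signal relative to control wells, capped at 0 and 100%. One two-parameter sigmoid per drug and line, fitted in a mixed model over all curves with the slope shared within a line.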

AZD6244 = compound: Cn1cnc2c(F)c(Nc3ccc(Br)cc3Cl)c(C(=O)NOCCO)cc21 [AZD6244]; settings: top dose 4 µM; screen: GDSC drug entry 1498; top dose inferred
Procedure: as §1

AS601245 = compound: N#CC(c1ccnc(NCCc2cccnc2)n1)c1nc2ccccc2s1 [AS601245]; settings: top dose 8 µM; top dose inferred
Procedure: as §1

EX-527 = compound: NC(=O)C1CCCc2c1[nH]c1ccc(Cl)cc21 [EX-527]; settings: top dose 20 µM
Procedure: as §1

YM201636 = compound: Nc1ccc(C(=O)Nc2cccc(-c3nc(N4CCOCC4)c4oc5ncccc5c4n3)c2)cn1 [YM201636]; settings: top dose 5.12 µM; top dose inferred
Procedure: as §1

Row | Cell Line | AUC (AZ628) | IC50 (AZ628) [µM] | AUC (AZD6244) | IC50 (AZD6244) [µM] | AUC (AS601245) | IC50 (AS601245) [µM] | AUC (EX-527) | IC50 (EX-527) [µM] | AUC (YM201636) | IC50 (YM201636) [µM]
1 | KY821 (leukaemia, suspension) | 0.968 | > 4 | 0.873 | 3.03 | 0.961 | > 8 | 0.982 | > 20 | 0.984 | > 5.12
2 | KYM-1 (rhabdomyosarcoma, adherent) | 0.878 | 3.05 | 0.973 | > 4 | 0.881 | 6.31 | 0.989 | > 20 | 0.97 | > 5.12
3 | L-363 (myeloma, suspension) | 0.97 | > 4 | 0.965 | > 4 | 0.877 | 6.18 | 0.99 | > 20 | 0.902 | 5.09
4 | L-428 (Hodgkin lymphoma, suspension) | 0.988 | > 4 | 0.992 | > 4 | 0.905 | > 8 | 0.991 | > 20 | 0.976 | > 5.12
5 | L-540 (Hodgkin lymphoma, suspension) | 0.914 | > 4 | 0.978 | > 4 | 0.894 | 7.82 | 0.989 | > 20 | 0.981 | > 5.12
6 | L-1236 (Hodgkin lymphoma, suspension) | 0.99 | > 4 | 0.979 | > 4 | 0.941 | > 8 | 0.991 | > 20 | 0.939 | > 5.12
7 | LAMA-84 (chronic myeloid leukaemia, suspension) | 0.448 | 0.18 | 0.936 | > 4 | 0.941 | > 8 | 0.971 | > 20 | 0.893 | > 5.12
8 | LAN-6 (neuroblastoma, adherent) | 0.638 | 0.647 | 0.833 | 3.28 | 0.923 | > 8 | 0.982 | > 20 | 0.966 | > 5.12
9 | LB373-MEL-D (melanoma, adherent) | 0.72 | 1.04 | 0.751 | 1.29 | 0.895 | > 8 | 0.986 | > 20 | 0.887 | > 5.12
10 | LB771-HNC (head and neck, adherent) | 0.964 | > 4 | 0.855 | > 4 | 0.909 | > 8 | 0.971 | > 20 | 0.911 | > 5.12
11 | LB831-BLC (bladder, adherent) | 0.978 | > 4 | 0.95 | > 4 | 0.67 | 1.5 | 0.972 | > 20 | 0.962 | > 5.12
12 | LB996-RCC (kidney, adherent) | 0.872 | > 4 | 0.899 | > 4 | 0.755 | 3.11 | 0.983 | > 20 | 0.951 | > 5.12
13 | LB1047-RCC (kidney, adherent) | 0.921 | > 4 | 0.74 | 1.34 | 0.672 | 1.61 | 0.981 | > 20 | 0.882 | > 5.12
14 | LB2241-RCC (kidney, adherent) | 0.906 | > 4 | 0.69 | 0.912 | 0.773 | 3.48 | 0.983 | > 20 | 0.945 | > 5.12
15 | LB2518-MEL (melanoma, adherent) | 0.116 | < 0.0156 | 0.344 | 0.09 | 0.851 | 6.61 | 0.977 | > 20 | 0.951 | > 5.12
16 | LC4-1 (lymphoblastic leukaemia, suspension) | 0.943 | > 4 | 0.949 | > 4 | 0.8 | 4.34 | 0.954 | > 20 | 0.718 | 1.43
17 | LC-2-ad (lung adenocarcinoma, adherent) | 0.833 | 2.68 | 0.936 | > 4 | 0.802 | 4.07 | 0.979 | > 20 | 0.891 | > 5.12
18 | LOUCY (T-cell lymphoblastic leukaemia, suspension) | 0.981 | > 4 | 0.948 | > 4 | 0.86 | 4.81 | 0.992 | > 20 | 0.771 | 1.61
19 | LOXIMVI (melanoma, semi-adherent) | 0.906 | > 4 | 0.465 | 0.202 | 0.855 | 5.33 | 0.984 | > 20 | 0.962 | > 5.12
20 | LP-1 (myeloma, suspension) | 0.968 | > 4 | 0.993 | > 4 | 0.852 | 4.61 | 0.987 | > 20 | 0.841 | 2.72
